The values that follow come from PubChem BioAssay AID1745853 (National Center for Advancing Translational Sciences (NCATS), 2022).

The structures appear in SMILES notation. Some of the results follow. Further columns of the screen follow, without active or inactive calls.

Assay in all cases: Primary Screen for Target Class Profiling of Small Molecule Inhibitors of Methyltransferases
The target in assay [1] is Glycine N-methyltransferase (Homo sapiens) (UniProt Q14749). The note with it: purified enzyme, MTase-Glo SAH luminescence; measured here: GNMT inhibition; at 40 µM; stronger effect = lower value. A digest of the protocol: (§1)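 Each enzyme was reacted with SAM and its substrate, with compounds tested once at 40 uM; SAH formed was read by MTase-Glo luminescence.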
Assay [2] addresses Guanidinoacetate N-methyltransferase (Homo sapiens) (UniProt Q14353). Particulars: purified enzyme, MTase-Glo SAH luminescence; measured here: GAMT inhibition; at 40 µM; stronger effect = lower value. A digest of the protocol: as §1
Assay [3] has as its target Histamine N-methyltransferase (Homo sapiens) (UniProt P50135). Particulars: purified enzyme, MTase-Glo SAH luminescence; measured here: HNMT inhibition; at 40 µM; stronger effect = lower value. A digest of the protocol:
as §1

Assay [4] has as its target Nicotinamide N-methyltransferase (Homo sapiens) (UniProt P40261). Particulars: purified enzyme, MTase-Glo SAH luminescence; measured here: NNMT inhibition; at 40 µM; stronger effect = lower value. A digest of the protocol: as §1
For assay [5], the target named is Phenylethanolamine N-methyltransferase (Homo sapiens) (UniProt P11086). The note with it: purified enzyme, MTase-Glo SAH luminescence; measured here: PNMT inhibition; at 40 µM; stronger effect = lower value. A digest of the protocol:
as §1
On the % scale 0 is the no-effect control and ±100 the full control effect.

Consider `CC1(C(=O)NC2CCCCCC2)Cn2c(ccc2-c2ccco2)C(=O)N1C1CCCC1` (stereo not given), for which the activity change, negative = inhibition in assay [1] is -2.47%; in assay [2], 3.65%; in assay [3], -0.249%; in assay [4], -20.4%; in assay [5] it was -2.14%.

For the compound `CCOC(=O)c1cc2n(n1)CC(C)(C(=O)NCc1ccc(Cl)cc1)N(Cc1ccc(C)o1)C2=O` (stereo not given), the activity change, negative = inhibition was 0.474% in assay [1]; 4.22% in assay [2]; -1.7% in assay [3]; -0.385% in assay [4]; 2.09% in assay [5].

For the compound `CC1C(=O)CC2C3CCC(C(=O)O)C12CC3(C)CO` (stereo not given), the activity change, negative = inhibition is -3.68% in assay [1]; -3.57% in assay [2]; 9.4% in assay [3]; -18.8% in assay [4]; -14.2% in assay [5].

Consider `CCCn1c(=O)c2ccccc2n2c(=O)n(Cc3c(F)cccc3Cl)nc12`, for which the activity change, negative = inhibition in assay [1] is -0.874%; in assay [2], 0.888%; in assay [3], 7.22%; in assay [4], -21%; in assay [5] it was 3.28%.

`N#Cc1cccc(CN[C@H]2[C@H](O)[C@H](O)C[C@@H]2c2cccnc2)c1`: the activity change, negative = inhibition in assay [1] is -2.66%; in assay [2], -3.29%; in assay [3], 0.771%; in assay [4], -6.13%; in assay [5] it was -4.65%.

Take `COc1ccc(Br)cc1CN1C(=O)c2cc3ccccc3n2CC1(C)C(=O)NCc1ccccc1` (stereo not given): the activity change, negative = inhibition is 4.13% in assay [1]; 3.06% in assay [2]; 6.79% in assay [3]; 3.02% in assay [4]; -1.08% in assay [5].

As for `Nc1nc2ccc(Cl)cc2n2c(-c3ccccc3)nnc12`, the activity change, negative = inhibition in assay [1] was -1.54%; in assay [2], 9.04%; in assay [3], 6.17%; in assay [4], -6.28%; in assay [5] it was 0.172%.

Regarding `COC[C@@H]1[C@H](NC(=O)c2csc(C)c2-c2ccccc2)[C@@H]2CCO[C@H]12`, the activity change, negative = inhibition in assay [1] was -6.44%; in assay [2], -6.79%; in assay [3], -4.5%; in assay [4], -9.54%; in assay [5] it was 5.33%.

Turning to `COc1c2c(c(C)c3c1C(=O)OC3)O[C@@]1(C)CC(O)C(C(C)(C)O)[C@](C)(CCC(=O)O)[C@H]1C2` (stereo not given in full), the activity change, negative = inhibition in assay [1] was -2.26%; in assay [2], -4.52%; in assay [3], -5.53%; in assay [4] it was -17.5%; in assay [5], -2.04%.

As for `CCc1cc2c(cc3n2CC(C)(C(=O)NC2CCCCCC2)N(CC(C)c2ccccc2)C3=O)s1` (stereo not given), the activity change, negative = inhibition in assay [1] is -4.64%; in assay [2], 3.73%; in assay [3] it was -2.83%; in assay [4], -0.477%; in assay [5], -4.8%.

For the compound `CC1CCCC(NC(=O)C2(C)Cn3c(nc4ccccc43)C(=O)N2CCc2ccccc2)C1C` (stereo not given), the activity change, negative = inhibition was 1.87% in assay [1]; 4.29% in assay [2]; -0.053% in assay [3]; 1.78% in assay [4]; -0.935% in assay [5].

As to `COc1ccc(CNC(=O)[C@@H](C)C2CC[C@@]3(C)CC[C@H](NC(=O)COc4ccccc4)[C@@H](C)[C@@H]3[C@H]2O)cc1` (stereo not given in full), the activity change, negative = inhibition in assay [1] was -3.24%; in assay [2], 0.372%; in assay [3] it was -9.27%; in assay [4], -7.1%; in assay [5] it was -6.63%.

Regarding `CCCNC(=O)c1ccc2c(=O)nc3c(-c4ccc(OC)cc4)n[nH]n3c2c1`, the activity change, negative = inhibition was -4.07% in assay [1]; 4.66% in assay [2]; -2.18% in assay [3]; -0.344% in assay [4]; -2.12% in assay [5].

In the case of `Cn1c(=O)c2ccc(C(=O)NC3CCCCC3)cc2n2c(=O)n(CC(=O)Nc3ccc(Cl)cc3)nc12`, the activity change, negative = inhibition in assay [1] was 2.38%; in assay [2], 5.6%; in assay [3], 8.88%; in assay [4] it was -1.44%; in assay [5], 2.83%.

On to `CCCn1c(=O)c2ccc(C(=O)NC(C)C)cc2n2c(SCc3cccc(OC)c3)nnc12`, for which the activity change, negative = inhibition in assay [1] is 1.14%; in assay [2] it was 1.68%; in assay [3], 4.4%; in assay [4] it was -6.1%; in assay [5] it was -0.465%.

Take `C/C=C(\C)C(=O)O[C@H]1[C@@H](O[C@]2(COC(=O)CC(C)C)O[C@H](COC(=O)C(C)CC)[C@@H](OC(C)=O)[C@@H]2O)O[C@H](COC(C)=O)[C@@H](O)[C@@H]1O` (stereo not given in full): the activity change, negative = inhibition in assay [1] is 3.1%; in assay [2] it was 3.61%; in assay [3], 5.62%; in assay [4] it was -10.3%; in assay [5], -3.54%.

As to `CC(C)c1ccc(N2C(=O)c3cc4sccc4n3CC2(C)C(=O)NC2CCCCC2)cc1` (stereo not given), the activity change, negative = inhibition in assay [1] is -1%; in assay [2] it was 6.34%; in assay [3], 0.011%; in assay [4] it was 3.54%; in assay [5] it was -1.73%.

Turning to `COc1ccc(Nc2nc3c(S(=O)(=O)c4ccc(C)cc4)nnn3c3ccccc23)cc1OC`, the activity change, negative = inhibition in assay [1] was -15.8%; in assay [2], 5.41%; in assay [3], 3.31%; in assay [4], 1.36%; in assay [5] it was -1.34%.

On to `CCC(=O)N1CCc2sc(C(=O)NCCCOC)cc2C1`, for which the activity change, negative = inhibition is -3.9% in assay [1]; -8.97% in assay [2]; -1.3% in assay [3]; -8.34% in assay [4]; -5.37% in assay [5].

In the case of `C=CCn1c(=O)c2ccc(C(=O)NCC(C)C)cc2n2c(=O)n(CC(=O)NCc3ccccc3)nc12`, the activity change, negative = inhibition in assay [1] is -3.29%; in assay [2] it was -0.851%; in assay [3] it was -4.67%; in assay [4] it was -11%; in assay [5], -5.66%.

Regarding `COc1ccc(Nc2n[nH]nc2C(=O)NCc2ccc3c(c2)OCO3)cc1`, the activity change, negative = inhibition amounted to 0.986% in assay [1]; 4.95% in assay [2]; 5.84% in assay [3]; 1.78% in assay [4]; 0.858% in assay [5].

Take `O=C(c1cccc2c1NCCC2)N1CCn2nc(C(O)C3CC3)cc2C1` (stereo not given): the activity change, negative = inhibition in assay [1] is -1.04%; in assay [2], -0.21%; in assay [3], 1.9%; in assay [4] it was -7.15%; in assay [5] it was 0.51%.

On to `Cn1cc(CN(Cc2c(C(=O)N3CCCC3)nc3sccn23)C2CC2)cn1`, for which the activity change, negative = inhibition in assay [1] was 0.119%; in assay [2] it was -5.22%; in assay [3], 1.75%; in assay [4], -3.66%; in assay [5], 1.3%.

Regarding `OC[C@@H]1O[C@H](CNC2CCOCC2)[C@H](N2CCCCC2)[C@@H]1O`, the activity change, negative = inhibition in assay [1] is -3.27%; in assay [2] it was -5.16%; in assay [3], -3.18%; in assay [4], -5.71%; in assay [5], -2.87%.

As to `COc1ccc(CN2C(=O)[C@@H]3C[C@@H](O)CN3C3(CN(C)C3)C2=O)cc1`, the activity change, negative = inhibition is -2.99% in assay [1]; -6.38% in assay [2]; -1.88% in assay [3]; -6.18% in assay [4]; -5.48% in assay [5].

`COc1ccc(CNC(=O)Cn2ccc3cc(S(=O)(=O)N4CCCC4)ccc32)cc1`: the activity change, negative = inhibition was -1.71% in assay [1]; 3.66% in assay [2]; -3.7% in assay [3]; -6.09% in assay [4]; -0.478% in assay [5].

Take `COc1ccc(NC(=O)CCc2nnc3n(Cc4ccc(Cl)cc4)c(=O)c4ccccc4n23)cc1`: the activity change, negative = inhibition is -1.61% in assay [1]; 0% in assay [2]; 4.54% in assay [3]; 2.2% in assay [4]; -2.32% in assay [5].

In the case of `CC1CCC(=O)CC(O)C(O)CC(=O)O1` (stereo not given), the activity change, negative = inhibition in assay [1] is 2.86%; in assay [2] it was 3.54%; in assay [3] it was 7.23%; in assay [4], -8.78%; in assay [5] it was 1.82%.

For the compound `CCCn1c(=O)c2ccccc2n2c(=O)n(CC(=O)c3ccc(C)cc3)nc12`, the activity change, negative = inhibition in assay [1] is -2%; in assay [2] it was 4.07%; in assay [3] it was 2.9%; in assay [4] it was -2.41%; in assay [5], 1.5%.
